# Reference: PMC12136788
# The other results are listed elsewhere or left out.
# B1: chr1:40238196:40238297:+|CDS|ENSG00000117000|msi1|total|mutant (ssRNA)
# RNA: GGGAGUUCUACAGUCCGACGAUCCGGUAUUCCCCAUUUCAGUGUCAUAUUUGCCAAAGGUCAUUUACAAGAAAAACACACCUCCGGAUUCAUUAUAAAAAUAAACAUCAAAUUGGCAGUGACAGAGCAACUCACAAACUAUUACAACAGAGGAUUGAGCAUCA
# B2: chr5:138511037:138511180:-|CDS|ENSG00000120705|unk|FALSE|unique (ssRNA)
# RNA: GGGAGUUCUACAGUCCGACGAUCCACGGGCAAGUACUGUUUUGGCGUUGAAGAUACACUAAAGGCUUUGGAAAUGGGAGCUGUAGAAAUUCUAAUAGUCUAUGAAAAUCUGGAUAUAAUGAGAUAUGUUCUUCAUUGCCAAGGCAACAGAGGAUUGAGCAUCA
# B3: chr10:110602053:110602155:+|CDS|ENSG00000108055|unk|FALSE|unique (ssRNA)
# RNA: GGGAGUUCUACAGUCCGACGAUCCAGUUUGUAAAUUUCUCCGAGCAGAAAGAAAAGUUAAUAAAGCGUCAAGAAGAGUUAGAUAGGGGUUACAAAUCAAUCAUGGAACUGAUGAAUGUACUUGAACUUCGGAAAUAUGAAGCUCAACAGAGGAUUGAGCAUCA
# B4: chr12:132722103:132722204:+|3pUTR|ENSG00000247077|msi1|FALSE|unique (ssRNA)
# RNA: GGGAGUUCUACAGUCCGACGAUCGCUUCGCCUUUGACCUUCAUGCUGGUCUCGGCUGAGGUGACACGCUAGUGACAGCCCAAUAGGGGGUUACCCUUAUUGAGUAAAAUACUUCAGAUUGACAGCUCAAUCUUAGUUUGCCUCCAACAGAGGAUUGAGCAUCA
# B5: chr17:57972098:57972209:-|3pUTR|ENSG00000136451|unk|total|mutant (ssRNA)
# RNA: GGGAGUUCUACAGUCCGACGAUCCCCGAAUGUGGUUGUCAGAACCCUGAAAGUAUCCGUUCUAAAAAAAAAAAGAUAUAUACCCGAAGUAAUUGUUUUAUCAAUUCAUUGUAUAAUAAACAGGAGUGAGACUUCAUUGUAUGACAACAGAGGAUUGAGCAUCA
# B6: ENSG00000070961:be:win_851|CDS|ENSG00000070961|bound_else_gene|NA|bound_elsewhere_windowed (ssRNA)
# RNA: GGGAGUUCUACAGUCCGACGAUCCUGGAAUUAUCUUUACCUUACUUGGAGCUGGAGGUGAAGAGGAAGAGAAGAAAGAUGAGAAGAAAAAGGAAAAGAAAAAUAAGAAACAAGAUGGAGCUAUUGAGAAUCGCAACAAAGCAACAACAGAGGAUUGAGCAUCA
# B7: chr1:23094017:23094118:-|CDS|ENSG00000169641|unk|total|mutant (ssRNA)
# RNA: GGGAGUUCUACAGUCCGACGAUCCUCCAGAAAGCAGAGGAUGAACUCCUGGAUCUCCAGGACAAGGUGAUUCAGGCAGAAGGCCGCAACUCCAGCAUGUUGGCGGAGAUUGAAGUGCUGCGCCAGCGGGUGCUGAGAAUUGAACAACAGAGGAUUGAGCAUCA
# B8: ENSG00000143742:stop:overlap|stop_codon|ENSG00000143742|stop_codon|NA|stop_codon (ssRNA)
# RNA: GGGAGUUCUACAGUCCGACGAUCAAUAUAGGCAUUCUGAUGGGAACUUGUGUGUUAAAGUAACAGAUGAUUUAGUUGAUCAUUAGUUCCUGUUGUUUAAAACUCAUGUGAACCUUUAAGAUGGGCUGAAGAAAAGUGGAUCUGCAACAGAGGAUUGAGCAUCA
# B9: ENSG00000147130:stop:overlap|stop_codon|ENSG00000147130|stop_codon|NA|stop_codon (ssRNA)
# RNA: GGGAGUUCUACAGUCCGACGAUCAAAAGCGGUUCUGCAACACAACCUGCUUGGGGGCGUACAAGAAGGUGGGGCCGAGGGAGUAGUGCAUUAGAGGGCUGUGGAAGGGGGUGUGGUUCUUGGGUUAUAAAUAAAGGUGGCUGACAACAGAGGAUUGAGCAUCA
# B10: chr1:151800263:151800922:-|three_prime_utr|ENSG00000213171|control|control|control (ssRNA)
# RNA: GGGAGUUCUACAGUCCGACGAUCCCAAGUCCGCUUCAGAUACCAAAGGGGAAGACAGAACCAAGGCUGCUUGAACCAGAACCUAGUCCCGAGCAGCACCGCUCUCCUGCACCUCCCGCCUGCGUUGUGCCUCCUGCCGGAGAGCAACAGAGGAUUGAGCAUCA
# B11: chr3:58171454:58171555:+|3pUTR|ENSG00000136068|msi1|FALSE|unique (ssRNA)
# RNA: GGGAGUUCUACAGUCCGACGAUCGGUGAUUAUUUCUUGCAGAAUCACCACACGAGACCAUCCCGGCAGUCAUGGUUUUGCUUUAGUUUUCCAAGUCCGUUUCAGUCCCUUCCUUGGUCUGAAGAAAUUCUGCAGUGGCGAGCACAACAGAGGAUUGAGCAUCA
# B12: chr9:133763799:133763900:-|3pUTR|ENSG00000160293|msi1|FALSE|unique (ssRNA)
# RNA: GGGAGUUCUACAGUCCGACGAUCCGAACCGUUUCACUGUCAGCCUGCCCUCGGCGACCCAUCACUGGGUAUGCUAUUGUACAUAGAGGAAACCUGGGCUAGCCCCACCCAGAGCGCAGAGGAGGGGGCACCGACAGCGCUGCGCAACAGAGGAUUGAGCAUCA
# B13: chr1:86742159:86742388:+|CDS|ENSG00000097033|unk|FALSE|bound_elsewhere (ssRNA)
# RNA: GGGAGUUCUACAGUCCGACGAUCUGUACCAUCAGUUUUACCAAAUGCGAUUGGUUCUUCUGCCAUGGCUUCAACAAGUGGCCUAGUAAUCACCUCUCCUUCCAACCUCAGUGACCUUAAGGAGUGUAGUGGCAGCAGAAAGGCCAACAGAGGAUUGAGCAUCA
# B14: ENSG00000070961:be:win_4501|3pUTR|ENSG00000070961|bound_else_gene|NA|bound_elsewhere_windowed (ssRNA)
# RNA: GGGAGUUCUACAGUCCGACGAUCCCUUUUGUUCAGAAUUUAGUAGAUUGUUUAAUGCAGGACAUCAACUACAUAAUGAAAGAUGCUUGAAAUGCUUUUGUUAUUUCAGGCAAAUCAAAUUAAAUCAGACUAUCAAACUACAAGCAACAGAGGAUUGAGCAUCA
# B15: ENSG00000169710:stop:overlap|stop_codon|ENSG00000169710|stop_codon|NA|stop_codon (ssRNA)
# RNA: GGGAGUUCUACAGUCCGACGAUCCCAUCAUCAGCAUCAUCCACAGCUCCCUGGCUGAGCCACGCGUGAGCGUGCGGGAGGGCUAGGCCCGUGCCCCCGCCUGCCACCGGAGGUCACUCCACCAUCCCCACCCCACCCCACCCCCAACAGAGGAUUGAGCAUCA
# B16: chr13:52036708:52036809:-|3pUTR|ENSG00000197168|unk|total|mutant (ssRNA)
# RNA: GGGAGUUCUACAGUCCGACGAUCGCCGAACUUUUGAAUACCGCCAUUAAUAUUUUUACUUUAAAGUUUCUAUUAAGAAAUCUCCGGCCGGGCAGUCUCAUCACUUUGGGAGGCCAAGGCAGGCAGAUCAUGAGGUCAGGAGUUCAACAGAGGAUUGAGCAUCA
# B17: chr17:35273046:35273147:+|3pUTR|ENSG00000166750|unk|FALSE|unique (ssRNA)
# RNA: GGGAGUUCUACAGUCCGACGAUCAUUCCUAAGAGCAGAAGACUGCAAAAUAGUAAAUAUAUACCCAAAAGGGUCUAAUGGAUUAGUUUUUGGCAUAUCAGCACAUGAUAAUACUAUGAAGCCAUAAAAAAGAGAGAUCUCUAUCAACAGAGGAUUGAGCAUCA
# B18: chr6:55753652:55755532:-|three_prime_utr|ENSG00000112175|control|control|control (ssRNA)
# RNA: GGGAGUUCUACAGUCCGACGAUCUAAGGUUUAUGGCUGCAAUAAAAAGCAUACUUUCAGACAAACGGGGAAUUUCCUAAAAUUAGUCUGGCUCAUUUUGACUCUUUUCCUAUGUACAAUAUCAUGUAUAUAGUCAUUUUUAUUCAACAGAGGAUUGAGCAUCA
# B19: chr3:11557766:11557867:-|3pUTR|ENSG00000144560|msi1|FALSE|unique (ssRNA)
# RNA: GGGAGUUCUACAGUCCGACGAUCCUGGACUGCAGACUCUACCAAUCACGGGCAUUUUAUCUUCUCUGAACACUGCAGUUUGUUAGACUAGAGCUGAGGUUGGAGGAUUCCAUAGUGCUUUAAACGUGAUGCAUGUUUUAAUGGCAACAGAGGAUUGAGCAUCA
# B20: chr3:185917260:185917361:-|3pUTR|ENSG00000136527|msi1|total|mutant (ssRNA)
# RNA: GGGAGUUCUACAGUCCGACGAUCUGGCAAAAAGCAACAAUAAACAGUUUGAUUUUUACUUUUCUUUCUAACAUAUCAAUGCUCCGCAGAACUAUUCAGAUUGUCAGCCGUAAAUUUAAAGACAAAUGCCCGUUUUCCUCCAGUCAACAGAGGAUUGAGCAUCA
# B21: chr7:32869766:32869881:-|CDS|ENSG00000170852|unk|total|mutant (ssRNA)
# RNA: GGGAGUUCUACAGUCCGACGAUCAUGUACUGUUAUUUUCCAAGGUCUGACUCAUGGGCCGAAAUGGCCAUGAGACAGACCCGCCGGUCCUUUGCUUCAGCUGCAGCUUUUGGUGAUAAAAUUUUCUAUAUUGGAGGGUUGCAUCAACAGAGGAUUGAGCAUCA
# B22: chr12:57626096:57626197:-|3pUTR|ENSG00000135454|msi1|total|mutant (ssRNA)
# RNA: GGGAGUUCUACAGUCCGACGAUCGUGUCUCUGCAAUGCUGUGGGCACAAAAGAAGGGGCACCAGAGUCCCUGUGCAAACACCCCGACUCACUUCAUGGAUUCCAAAGCUCUCAGCUUCAUUUUAUCCGUUACGUCCGGUAAGGCAACAGAGGAUUGAGCAUCA
# Target: MSI1 full-length (mouse, UniProt Q61474 1-362)
# Chain of UniProt Q61474 (Q61474 whole entry): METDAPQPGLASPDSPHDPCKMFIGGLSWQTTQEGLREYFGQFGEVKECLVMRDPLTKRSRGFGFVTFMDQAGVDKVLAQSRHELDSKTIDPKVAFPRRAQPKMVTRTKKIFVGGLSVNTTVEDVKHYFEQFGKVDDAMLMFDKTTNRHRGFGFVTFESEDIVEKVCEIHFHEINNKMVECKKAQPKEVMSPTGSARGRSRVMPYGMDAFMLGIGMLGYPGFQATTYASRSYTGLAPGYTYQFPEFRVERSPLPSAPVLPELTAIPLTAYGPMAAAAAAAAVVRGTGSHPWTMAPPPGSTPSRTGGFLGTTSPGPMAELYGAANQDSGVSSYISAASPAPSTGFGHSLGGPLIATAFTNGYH
# Assay: nsRBNS (natural sequence RNA bind-n-seq); RBNS binding buffer (assumed for nsRBNS): 25 mM Tris pH 7.5, 150 mM KCl, 3 mM MgCl2, 0.01% Triton X-100, 500 ug/ml BSA, 20 U/ml SUPERase-In, 4 C; UNK is unkempt and MSI1 is Musashi-1; names of the RNAs are library labels; protein concentration not given here; high values mean tight binding
row,Binder,binding signal [enrichment R]
1,B1,1.15
2,B2,1.09
3,B3,7.98
4,B4,0.316
5,B5,0.711
6,B6,0.724
7,B7,0.282
8,B8,0.53
9,B9,0.498
10,B10,0.483
11,B11,0.516
12,B12,0.554
13,B13,0.612
14,B14,0.644
15,B15,0.237
16,B16,1.22
17,B17,4.14
18,B18,0.571
19,B19,1.35
20,B20,0.45
21,B21,0.278
22,B22,0.39
